{"source": "PubChem BioAssay AID540267", "about": "(National Center for Advancing Translational Sciences (NCATS), 2011)", "note": "The whole screen tested about 340,000 compounds, of which about 530 (0.16%) were called active. Inconclusive results, whose numbers are uncertain, are shown with a selection of clear calls. No stated cut-off is given here; in the data, active means activity change below about -80%; inconclusive means between about -30% and that limit; inactive means weaker than that. On the % scale 0 is the no-effect control and ±100 the full control effect."}
{"test": "Small Molecules that selectively kill Giardia lamblia: qHTS;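 further: parasites exposed to compound for two days anaerobically before the ATP read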", "conditions": "Giardia lamblia trophozoite viability; at 7.66 µM; active compounds read low", "summary_of_the_method": "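Media and compound were dispensed first, then trophozoites at 100 cells/well; plates sat 48 hrs at 37 deg C without oxygen before ATP luminescence reagent was added and read after 15-30 min at room temperature.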"}
{"smiles": "Cc1cc(C)c2c(CCl)cc(=O)oc2c1", "activity change": "inactive: 7.48%"}
{"smiles": "O=C(N1CCCCC1)C12CC3CC(C1)CC(C(=O)N1CCCCC1)(C3)C2", "activity change": "inactive: 6.03%"}
{"smiles": "Cc1ccc(Oc2ncccc2NC(=O)CC(CC(=O)O)c2ccccc2)c2c1CCC2", "note": "(centres undefined)", "activity change": "inconclusive: -34.6% [inhibitor]"}
{"smiles": "CCOc1ccc(-c2cc(C(=O)OC)nc3c2c(=O)n(C)c(=O)n3C)cc1", "activity change": "inconclusive: -40.5% [inhibitor]"}
{"smiles": "O=C(O)c1ccc(S(=O)(=O)NC2CCCCCC2)cc1", "activity change": "inconclusive: -30.7% [inhibitor]"}
{"smiles": "CCOc1ccc(C(CC(=O)O)NC(=O)c2sc3ccccc3c2Cl)cc1", "note": "(centres undefined)", "activity change": "inconclusive: -44.9% [inhibitor]"}
{"smiles": "CC(C)OCCCN(C)C1CCN(S(=O)(=O)c2csc(C(N)=O)c2)CC1", "activity change": "inactive: 14.6%"}
{"smiles": "COc1ccc(CNc2ncc(-c3cccc([N+](=O)[O-])c3)n2C)c(OC)c1OC", "activity change": "inactive: 3.82%"}
{"smiles": "COc1ccc(CN2CCN(S(=O)(=O)c3ccc(NC(C)=O)cc3)CC2)cc1OC", "activity change": "inactive: 23.3%"}
{"smiles": "Cc1ccccc1CC1(CO)CCCN(C(=O)c2ccc(F)cc2)C1", "note": "(centres undefined)", "activity change": "inactive: -16.4%"}
{"smiles": "CCOC(=O)c1ccccc1Nc1cc(C)nc2nc(-c3ccco3)nn12", "activity change": "inconclusive: -39.6% [inhibitor]"}
{"smiles": "CSCC[C@@H](C(=O)Nc1ccc2c(c1)OCCO2)N1Cc2ccccc2C1=O", "activity change": "inconclusive: -40.1% [inhibitor]"}
{"smiles": "Cc1cc(C)c(OCC(=O)Nc2nc(-c3ccccn3)cs2)c(C)c1", "activity change": "inactive: 13.2%"}
{"smiles": "C=CCn1c(COc2ccc(CC)cc2)nnc1SC/C(O)=C(\\C#N)c1nc2ccccc2[nH]1", "activity change": "inconclusive: -34.5% [inhibitor]"}
{"smiles": "Cc1ccc(S(=O)(=O)NC(=O)c2ccc(-c3ccc(C)c4ccccc34)o2)cc1", "activity change": "inactive: 35.5%"}
{"smiles": "Cc1ccc(S(=O)(=O)c2c(C)nn(C(C)(C)C)c2OC(=O)CC(C)C)cc1", "activity change": "inconclusive: -35.7% [inhibitor]"}
{"smiles": "CN(Cc1ccccc1)S(=O)(=O)c1ccc(Cl)c(C(=O)NCc2cccnc2)c1", "activity change": "inactive: -4.5%"}
{"smiles": "O=C(CSc1n[nH]c(=O)n1Cc1ccco1)Nc1ccccc1Cl", "activity change": "inactive: -1.72%"}
{"smiles": "S=c1[nH]nc(COc2cccc(Cl)c2)n1Cc1ccccc1", "activity change": "inconclusive: -32% [inhibitor]"}
{"smiles": "Cc1ccc(C)c(OCCC(=O)NCCc2ccc(F)cc2)c1", "activity change": "inactive: -12.4%"}
{"smiles": "O=C(Nc1cccc(O)c1)c1cc(-c2ccc3c(c2)OCO3)on1", "activity change": "active: -82.2%"}
{"smiles": "O=C(O)c1ccccc1C(=O)c1ccc2c(c1)N(Cc1cccc(F)c1)C(=O)CO2", "activity change": "inactive: -27.2%"}
{"smiles": "COc1cc(C(=O)Nc2ccc(C)cc2C(NCC(=O)NN)c2ccccc2)cc(OC)c1OC", "note": "(centres undefined)", "activity change": "inconclusive: -34.4% [inhibitor]"}
{"smiles": "Cc1c(Br)c([N+](=O)[O-])nn1C(C)C(=O)Nc1ccc2c(c1)OCO2", "note": "(centres undefined)", "activity change": "inconclusive: -45.8% [inhibitor]"}
{"smiles": "c1ccc(C2=Nc3ccccc3NC(c3ccccc3)C2)cc1", "note": "(centres undefined)", "activity change": "inactive: -8.72%"}
{"smiles": "CCN(CC)C1Oc2cc3c(cc2C(c2cc(OC)c(OC)c(OC)c2)C1C)OCO3", "note": "(centres undefined)", "activity change": "inconclusive: -31.7% [inhibitor]"}
{"smiles": "CCC(COC)NCc1cn(-c2ccc(F)cc2F)nc1-c1ccccc1C", "note": "(centres undefined)", "activity change": "inconclusive: -37.9% [inhibitor]"}
{"smiles": "O=[N+]([O-])c1ccc2c(c1N1CCCCC1)=NC1(CCCCC1)[N+]=2[O-]", "activity change": "inactive: 14.5%"}
{"smiles": "COCCCNC(=O)C1CCN(c2ccc(N3CCOCC3)nn2)CC1", "activity change": "inconclusive: -34.8% [inhibitor]"}
{"smiles": "CCOC(=O)C1CCN(C2=C(NS(=O)(=O)c3ccc(Br)cc3)C(=O)c3ccccc3C2=O)CC1", "activity change": "inconclusive: -32.3% [inhibitor]"}
{"smiles": "CC(C)c1ccc2nc(NC(=O)C3CC3)sc2c1", "activity change": "inactive: 4.21%"}
{"smiles": "COc1ccc(C(=O)Cn2cc([N+](=O)[O-])nc2C)cc1", "activity change": "inconclusive: -43.7% [inhibitor]"}
{"smiles": "Cc1ccc(N(CC(=O)NCc2ccc3c(c2)OCO3)S(=O)(=O)c2c(C)noc2C)cc1", "activity change": "inconclusive: -34.9% [inhibitor]"}
{"smiles": "Nc1c([N+](=O)[O-])c(=O)sc2ccccc12", "activity change": "inconclusive: -32% [inhibitor]"}
{"smiles": "NC(=O)c1nsc(C(=O)N(Cc2ccco2)C(C(=O)NCC2CCCO2)c2ccc(O)cc2)c1N", "note": "(centres undefined)", "activity change": "inconclusive: -35.1% [inhibitor]"}
{"smiles": "O=C(CSc1nnc(CNC(=O)c2ccc(F)cc2)o1)NCC1CCCO1", "note": "(centres undefined)", "activity change": "inactive: -7.01%"}
{"smiles": "Cc1ccc(-n2c(-c3ccc(Cl)cc3)n[nH]c2=S)cc1", "activity change": "inconclusive: -36.5% [inhibitor]"}
{"smiles": "CCc1onc(C)c1C(=O)O", "activity change": "inactive: -7.76%"}
{"smiles": "Cc1ccc(S(=O)(=O)/N=C(/Nc2ccc([N+](=O)[O-])cc2[N+](=O)[O-])c2ccccc2)cc1", "activity change": "inconclusive: -39.2% [inhibitor]"}
{"smiles": "CC(=O)CC(=O)Nc1ccc2ccccc2c1", "activity change": "inconclusive: -33.2% [inhibitor]"}
{"smiles": "COc1cc(/C=C/c2cc(C(=O)O)c3ccccc3n2)ccc1OC(F)F", "activity change": "inconclusive: -58.1% [inhibitor]"}
{"smiles": "O=C(O)CN1C(=O)NC2(CCOc3ccccc32)C1=O", "note": "(centres undefined)", "activity change": "inconclusive: -37% [inhibitor]"}
{"smiles": "Cc1coc(C)c1C(=O)Nc1ccc2ccccc2c1", "activity change": "inconclusive: -37% [inhibitor]"}
{"smiles": "[O-][N+]1=C(c2cccs2)CN(O)C1", "activity change": "inactive: -5.9%"}
{"smiles": "N=c1sccn1CC(=O)NC(c1ccccc1)c1ccccc1", "activity change": "inactive: 28.6%"}
{"smiles": "COCCCn1c(=N)c(C(=O)NCc2ccc3c(c2)OCO3)cc2c(=O)n3cccc(C)c3nc21", "activity change": "inconclusive: -38.1% [inhibitor]"}
{"smiles": "O=C(NCCN1CCOCC1)/C(=C/c1ccc(Cl)cc1)NC(=O)c1ccccc1", "activity change": "inconclusive: -35.3% [inhibitor]"}
{"smiles": "Cn1cccc1CC(=O)NNC(=O)Nc1ccc(F)cc1", "activity change": "inconclusive: -31.6% [inhibitor]"}
{"smiles": "COc1cc2c(cc1OC)CN(c1ccc(C(F)(F)F)cn1)CC2", "activity change": "inactive: -3.1%"}
{"smiles": "O=[N+]([O-])c1ccc(COn2nnc3ccccc32)cc1", "activity change": "inconclusive: -77.5% [inhibitor]"}
{"smiles": "Cc1ccsc1C(=O)N(c1nc2ccccc2s1)c1c(C)cccc1C", "activity change": "inconclusive: -33.5% [inhibitor]"}
{"smiles": "O=C(CC1(O)C(=O)N(CCc2ccccc2)c2ccccc21)c1ccco1", "note": "(centres undefined)", "activity change": "inactive: -8.58%"}
{"smiles": "Cc1c(C(=O)N/N=C/c2ccncc2)no[n+]1[O-]", "activity change": "inconclusive: -31.8% [inhibitor]"}
{"smiles": "CC(c1nccs1)N(C)C(=O)CCc1nnc(-c2ccc(-c3ccccc3)cc2)o1", "note": "(centres undefined)", "activity change": "inactive: 21.6%"}
{"smiles": "Cc1ccc(-c2nnc(-c3cc(C)on3)o2)cc1", "activity change": "inconclusive: -32.9% [inhibitor]"}
{"smiles": "Cc1cccc(C)c1NC1=NC(C)(C)N=C(N)N1", "activity change": "inconclusive: -30.6% [inhibitor]"}
{"smiles": "NC(=O)C1CCN(c2ncccc2[N+](=O)[O-])CC1", "activity change": "inconclusive: -60% [inhibitor]"}
{"smiles": "O=C(NC1CCCC(C(F)(F)F)C1)c1ccc([N+](=O)[O-])o1", "note": "(centres undefined)", "activity change": "active: -90.7%"}
{"smiles": "O=C(CSc1n[nH]c(=O)n1C1CC1)Nc1ccc(F)c([N+](=O)[O-])c1", "activity change": "inconclusive: -34% [inhibitor]"}
{"smiles": "C=CCONC(=O)Cc1ccccc1", "activity change": "inconclusive: -34.6% [inhibitor]"}
{"smiles": "Cc1c(C(=O)N2CCOCC2)c(S(=O)(=O)Nc2ccccc2)c(C)n1C", "activity change": "inactive: 6.42%"}
{"smiles": "Cc1c(C(=O)NCc2ccccc2)oc2ccc(S(=O)(=O)N3CCCC3)cc12", "activity change": "inconclusive: -40.1% [inhibitor]"}
{"smiles": "CCc1ccc(NC(=O)C(=O)NCCN2CCN(Cc3ccc([N+](=O)[O-])cc3)CC2)cc1", "activity change": "inactive: -4.37%"}
{"smiles": "CCOc1ccccc1C(=O)Nc1ccc2nc(N3CCN(c4ncccn4)CC3)cc(C)c2c1", "activity change": "inconclusive: -80% [inhibitor]"}
{"smiles": "COC(=O)c1ccc(CNC(=O)Cn2cnc(C(=O)Nc3ccc(C)c(C)c3)n2)cc1", "activity change": "inconclusive: -38.8% [inhibitor]"}
{"smiles": "Cc1ccc(F)c(CNC(=O)C2CCC(=O)N(Cc3ccccn3)C2)c1F", "note": "(centres undefined)", "activity change": "inconclusive: -32.6% [inhibitor]"}
{"smiles": "COc1cc(NS(=O)(=O)c2cc3[nH]c(=O)c(=O)[nH]c3cc2C)cc(OC)c1OC", "activity change": "inconclusive: -32% [inhibitor]"}
{"smiles": "Cc1ccc(-n2cc(C(=O)O)c(=O)cc2C)c(C)c1", "activity change": "inconclusive: -31.8% [inhibitor]"}
{"smiles": "COc1ccc(OC)c(NC(=O)c2cccc(Cn3cc(Br)c([N+](=O)[O-])n3)c2)c1", "activity change": "inconclusive: -31.7% [inhibitor]"}
{"smiles": "CC(C)c1onc(C(=O)N2CCN(c3ccccc3)CC2)c1[N+](=O)[O-]", "activity change": "inconclusive: -35.5% [inhibitor]"}
{"smiles": "O=C(NN(c1ccccc1)c1ccccc1)c1ccc([N+](=O)[O-])o1", "activity change": "active: -89.3%"}
{"smiles": "CCn1c(/C=C/c2cc[n+](C)cc2)nc2ccccc21", "activity change": "inactive: -17.7%"}
{"smiles": "Cc1cc(C)c(S(=O)(=O)N/N=C/c2ccc([N+](=O)[O-])o2)c(C)c1", "activity change": "inconclusive: -37.7% [inhibitor]"}
{"smiles": "CCCN(CCC)C(=S)NC(=O)c1ccc(-c2ccccc2)cc1", "activity change": "inactive: -11.8%"}
{"smiles": "CC(O)(c1ccccc1)c1ccc2ccccc2n1", "note": "(centres undefined)", "activity change": "inactive: -8.37%"}
{"smiles": "Oc1ccccc1CNc1cccc2cccnc12", "activity change": "inconclusive: -31.8% [inhibitor]"}
{"smiles": "Cc1ccc(C)c(OCC(=O)N/N=C/c2c(C)nn(-c3ccccc3)c2Cl)c1C", "activity change": "inactive: -4.36%"}
{"smiles": "Cc1cc(C(F)(F)F)nc(-n2cc(-c3ccccc3)nn2)n1", "activity change": "inconclusive: -31.7% [inhibitor]"}
{"smiles": "Cc1nc2cc(NC(=O)c3ccc([N+](=O)[O-])s3)ccc2s1", "activity change": "inconclusive: -78.5% [inhibitor]"}
